In the supplement of paper PMC10724272:

What follows are test systems tested with C[C@@H]1[C@H](O)[C@@H](C)/C=C/C=C/C=C/C=C/C=C/C=C/C=C/[C@H](O[C@@H]2O[C@H](C)[C@@H](O)[C@H](N)[C@@H]2O)C[C@@H]2O[C@](O)(C[C@@H](O)C[C@@H](O)[C@H](O)CC[C@@H](O)C[C@@H](O)CC(=O)O[C@H]1C)C[C@H](O)[C@H]2C(=O)O [amphotericin B] (assay: CLSI broth microdilution.).

Test System | MIC
Candida tropicalis isolate 9 (ERG11 copies: 2, Erg11p: no key change) | 1 mg/L [S]
Candida tropicalis isolate 172 (ERG11 copies: 2, Erg11p: no key change) | 0.5 mg/L [S]
Candida tropicalis isolate 61 (ERG11 copies: 2, Erg11p: no key change) | 1 mg/L [S]
Candida tropicalis isolate 343 (ERG11 copies: 2, Erg11p: no key change) | 1 mg/L [S]
Candida tropicalis isolate 423 (ERG11 copies: 8, Erg11p: Y132F, S154F (heterozygous)) | 0.5 mg/L [S]
Candida tropicalis isolate 108 (ERG11 copies: 2, Erg11p: Y132F, S154F (heterozygous)) | 0.5 mg/L [S]
Candida tropicalis isolate 253 (ERG11 copies: 2, Erg11p: no key change) | 1 mg/L [S]
Candida tropicalis isolate 219 (ERG11 copies: 2, Erg11p: no key change) | 1 mg/L [S]
Candida tropicalis isolate 375 (ERG11 copies: 2, Erg11p: no key change) | 0.5 mg/L [S]

The test systems below were run with Nc1[nH]c(=O)ncc1F [flucytosine] (assay: CLSI broth microdilution.).

Test System | MIC
Candida tropicalis isolate 424 (ERG11 copies: 2, Erg11p: no key change) | ≤ 0.06 mg/L [S]
Candida tropicalis isolate 192 (ERG11 copies: 2, Erg11p: no key change) | ≤ 0.06 mg/L [S]
Candida tropicalis isolate 212 (ERG11 copies: 2, Erg11p: no key change) | ≤ 0.06 mg/L [S]
Candida tropicalis isolate 98 (ERG11 copies: 2, Erg11p: no key change) | ≤ 0.06 mg/L [S]
Candida tropicalis isolate 337 (ERG11 copies: 2, Erg11p: no key change) | 0.12 mg/L [S]
Candida tropicalis isolate 3 (ERG11 copies: 7, Erg11p: Y132F, S154F (heterozygous)) | ≤ 0.06 mg/L [S]
Candida tropicalis isolate 381 (ERG11 copies: 7, Erg11p: Y132F, S154F (heterozygous)) | ≤ 0.06 mg/L [S]
Candida tropicalis isolate 97 (ERG11 copies: 2, Erg11p: no key change) | 0.5 mg/L [S]
Candida tropicalis isolate 433 (ERG11 copies: 2, Erg11p: no key change) | ≤ 0.06 mg/L [S]
Candida tropicalis isolate 135 (ERG11 copies: 2, Erg11p: no key change) | ≤ 0.06 mg/L [S]
Candida tropicalis isolate 151 (ERG11 copies: 2, Erg11p: no key change) | ≤ 0.06 mg/L [S]
Candida tropicalis isolate 86 (ERG11 copies: 2, Erg11p: no key change) | ≤ 0.06 mg/L [S]
Candida tropicalis isolate 371 (ERG11 copies: 2, Erg11p: no key change) | ≤ 0.06 mg/L [S]
Candida tropicalis isolate 333 (ERG11 copies: 2, Erg11p: no key change) | ≤ 0.06 mg/L [S]
Candida tropicalis isolate 218 (ERG11 copies: 2, Erg11p: no key change) | ≤ 0.06 mg/L [S]
Candida tropicalis isolate 448 (ERG11 copies: 7, Erg11p: Y132F, S154F (heterozygous)) | ≤ 0.06 mg/L [S]
Candida tropicalis isolate 339 (ERG11 copies: 3, Erg11p: Y132F, S154F (heterozygous)) | ≤ 0.06 mg/L [S]
Candida tropicalis isolate 177 (ERG11 copies: 2, Erg11p: no key change) | 0.12 mg/L [S]

Test System | MIC
Candida tropicalis isolate 53 (ERG11 copies: 2, Erg11p: no key change) | ≤ 0.06 mg/L [S]
Candida tropicalis isolate 335 (ERG11 copies: 2, Erg11p: no key change) | 0.12 mg/L [S]
Candida tropicalis isolate 428 (ERG11 copies: 2, Erg11p: Y257H (homozygous)) | ≤ 0.06 mg/L [S]
Candida tropicalis isolate 176 (ERG11 copies: 2, Erg11p: no key change) | ≤ 0.06 mg/L [S]
Candida tropicalis isolate 292 (ERG11 copies: 2, Erg11p: no key change) | ≤ 0.06 mg/L [S]
Candida tropicalis isolate 432 (ERG11 copies: 2, Erg11p: no key change) | ≤ 0.06 mg/L [S]
Candida tropicalis isolate 186 (ERG11 copies: 2, Erg11p: no key change) | ≥ 64 mg/L [R]
Candida tropicalis isolate 414 (ERG11 copies: 2, Erg11p: no key change) | ≤ 0.06 mg/L [S]
Candida tropicalis isolate 323 (ERG11 copies: 2, Erg11p: no key change) | ≤ 0.06 mg/L [S]
Candida tropicalis isolate 9 (ERG11 copies: 2, Erg11p: no key change) | ≤ 0.06 mg/L [S]
Candida tropicalis isolate 172 (ERG11 copies: 2, Erg11p: no key change) | ≤ 0.06 mg/L [S]
Candida tropicalis isolate 61 (ERG11 copies: 2, Erg11p: no key change) | 0.25 mg/L [S]
Candida tropicalis isolate 343 (ERG11 copies: 2, Erg11p: no key change) | ≤ 0.06 mg/L [S]
Candida tropicalis isolate 423 (ERG11 copies: 8, Erg11p: Y132F, S154F (heterozygous)) | ≤ 0.06 mg/L [S]
Candida tropicalis isolate 108 (ERG11 copies: 2, Erg11p: Y132F, S154F (heterozygous)) | ≤ 0.06 mg/L [S]
Candida tropicalis isolate 253 (ERG11 copies: 2, Erg11p: no key change) | 0.25 mg/L [S]
Candida tropicalis isolate 219 (ERG11 copies: 2, Erg11p: no key change) | ≤ 0.06 mg/L [S]
Candida tropicalis isolate 375 (ERG11 copies: 2, Erg11p: no key change) | ≤ 0.06 mg/L [S]

The test systems below were run with OC(Cn1cncn1)(Cn1cncn1)c1ccc(F)cc1F [fluconazole] (assay: CLSI broth microdilution.).

Test System | MIC
Candida tropicalis isolate 424 (ERG11 copies: 2, Erg11p: no key change) | 1 mg/L [S]
Candida tropicalis isolate 192 (ERG11 copies: 2, Erg11p: no key change) | 2 mg/L [S]
Candida tropicalis isolate 212 (ERG11 copies: 2, Erg11p: no key change) | 8 mg/L [R]
Candida tropicalis isolate 98 (ERG11 copies: 2, Erg11p: no key change) | 1 mg/L [S]
Candida tropicalis isolate 337 (ERG11 copies: 2, Erg11p: no key change) | 2 mg/L [S]
Candida tropicalis isolate 3 (ERG11 copies: 7, Erg11p: Y132F, S154F (heterozygous)) | 512 mg/L [R]
Candida tropicalis isolate 381 (ERG11 copies: 7, Erg11p: Y132F, S154F (heterozygous)) | 256 mg/L [R]
Candida tropicalis isolate 97 (ERG11 copies: 2, Erg11p: no key change) | 2 mg/L [S]
Candida tropicalis isolate 433 (ERG11 copies: 2, Erg11p: no key change) | 2 mg/L [S]
Candida tropicalis isolate 135 (ERG11 copies: 2, Erg11p: no key change) | 2 mg/L [S]
Candida tropicalis isolate 151 (ERG11 copies: 2, Erg11p: no key change) | 1 mg/L [S]
Candida tropicalis isolate 86 (ERG11 copies: 2, Erg11p: no key change) | 1 mg/L [S]
Candida tropicalis isolate 371 (ERG11 copies: 2, Erg11p: no key change) | 1 mg/L [S]
Candida tropicalis isolate 333 (ERG11 copies: 2, Erg11p: no key change) | 1 mg/L [S]
Candida tropicalis isolate 218 (ERG11 copies: 2, Erg11p: no key change) | 2 mg/L [S]
Candida tropicalis isolate 448 (ERG11 copies: 7, Erg11p: Y132F, S154F (heterozygous)) | 1020 mg/L [R]
Candida tropicalis isolate 339 (ERG11 copies: 3, Erg11p: Y132F, S154F (heterozygous)) | 256 mg/L [R]
Candida tropicalis isolate 177 (ERG11 copies: 2, Erg11p: no key change) | 0.5 mg/L [S]

Test System | MIC
Candida tropicalis isolate 53 (ERG11 copies: 2, Erg11p: no key change) | 1 mg/L [S]
Candida tropicalis isolate 335 (ERG11 copies: 2, Erg11p: no key change) | 0.25 mg/L [S]
Candida tropicalis isolate 428 (ERG11 copies: 2, Erg11p: Y257H (homozygous)) | 8 mg/L [R]
Candida tropicalis isolate 176 (ERG11 copies: 2, Erg11p: no key change) | 1 mg/L [S]
Candida tropicalis isolate 292 (ERG11 copies: 2, Erg11p: no key change) | 1 mg/L [S]
Candida tropicalis isolate 432 (ERG11 copies: 2, Erg11p: no key change) | 1 mg/L [S]
Candida tropicalis isolate 186 (ERG11 copies: 2, Erg11p: no key change) | 0.25 mg/L [S]
Candida tropicalis isolate 414 (ERG11 copies: 2, Erg11p: no key change) | 1 mg/L [S]
Candida tropicalis isolate 323 (ERG11 copies: 2, Erg11p: no key change) | 2 mg/L [S]
Candida tropicalis isolate 9 (ERG11 copies: 2, Erg11p: no key change) | 1 mg/L [S]
Candida tropicalis isolate 172 (ERG11 copies: 2, Erg11p: no key change) | 256 mg/L [R]
Candida tropicalis isolate 61 (ERG11 copies: 2, Erg11p: no key change) | 2 mg/L [S]
Candida tropicalis isolate 343 (ERG11 copies: 2, Erg11p: no key change) | 2 mg/L [S]
Candida tropicalis isolate 423 (ERG11 copies: 8, Erg11p: Y132F, S154F (heterozygous)) | 512 mg/L [R]
Candida tropicalis isolate 108 (ERG11 copies: 2, Erg11p: Y132F, S154F (heterozygous)) | 16 mg/L [R]
Candida tropicalis isolate 253 (ERG11 copies: 2, Erg11p: no key change) | 256 mg/L [R]
Candida tropicalis isolate 219 (ERG11 copies: 2, Erg11p: no key change) | 1 mg/L [S]
Candida tropicalis isolate 375 (ERG11 copies: 2, Erg11p: no key change) | 1 mg/L [S]

MIC of invasive clinical C. tropicalis isolates, CLSI broth microdilution (fluconazole 0.12-256 mg/L, up to 1,024 for the azole-resistant cluster and its neighbour group; other ranges not stated); higher = less susceptible. Call: susceptible or wild type [S] / resistant or non-wild type [R] by CLSI breakpoints or cut-offs; intermediate and dose-dependent carry no call. '<=' and '>=' at the end values are inferred; the source marks only some of them. Isolates are numbered anew.
